# Results from the supplement of paper PMC8728848.
# Some of the results follow.
# B1: PX15618B-bfa-464-25-464 (Bacteroides fragilis) (protein)
# chain: DQEPPLYVNENDIFTSPTRIEATLNGLYAAIKNTGTKSLMGGKSYLVFDNRGDDVINISNNLVTLFNTYNMNVGITDAENADTWTYAYLAINKVNTFLQSLEGAREVAGENYDRYVQEAKFVRALAYYYLNNLYPTPYSVNPDAKSVPLRLTAEAGTENNNMPRSTVKQIYEHILSDLENISALDTEVNTYTGVTHATQAAANMLKMRVYMAMNEWDKAITAGELVTGYSLPEDVTLIYKAPYFSQESIFSLPMADTNIPNTQQSLAEYYYDGKIMLIDTKSGIMSKPDYSLATDKRIIAFKGEKDLLMKFTDAKTKLQWVPIFRYAETLLDLAECYANKAGGEATAKSLLKQVRGRSVDAATDPLNIDNLSGDALKEAIYNEKRLEFIGEGIRGIDIMRRGEHFIKVGENETINVGPSDEKYTWPIPQVELLLNKDINK
# Experiments:
# Test in all cases: glycan array binding signal (z-score within array); higher = stronger binding
# Details in all cases: glycan notation: IUPAC condensed, linker removed
# Fuc(a1-2)Gal = target: Fuc(a1-2)Gal
# How it was run: (§1)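 Glycan array data came from 3228 arrays in the Consortium for Functional Glycomics database, and only arrays with an available protein sequence were kept. Glycan names were put into IUPAC-condensed notation, and columns mapping to the same glycan were averaged. The binding signal is a within-array Z-score, averaged across arrays of one protein sequence run at different concentrations or buffers and across linkers. A negative Z-score can be read as non-binding.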
# Fuc(a1-2)Gal(b1-3)GalNAc = target: Fuc(a1-2)Gal(b1-3)GalNAc
# How it was run: as §1
# [1] = target: Fuc(a1-2)Gal(b1-3)GalNAc(a1-3)[Fuc(a1-2)]Gal(b1-4)Glc
# How it was run: as §1
# [2] = target: Fuc(a1-2)Gal(b1-3)GalNAc(a1-3)[Fuc(a1-2)]Gal(b1-4)GlcNAc
# How it was run: as §1
# [3] = target: Fuc(a1-2)Gal(b1-3)GalNAc(b1-3)Gal
# How it was run: as §1
# [4] = target: Fuc(a1-2)Gal(b1-3)GalNAc(b1-3)Gal(a1-4)Gal(b1-4)Glc
# How it was run: as §1
# [5] = target: Fuc(a1-2)Gal(b1-3)GalNAc(b1-4)[Neu5Ac(a2-3)]Gal(b1-4)Glc
# How it was run: as §1
# Fuc(a1-2)Gal(b1-3)GlcNAc = target: Fuc(a1-2)Gal(b1-3)GlcNAc
# How it was run: as §1
# [6] = target: Fuc(a1-2)Gal(b1-3)GlcNAc(b1-2)Man(a1-3)[Fuc(a1-2)Gal(b1-3)GlcNAc(b1-2)Man(a1-6)]Man(b1-4)GlcNAc(b1-4)GlcNAc
# How it was run: as §1
# [7] = target: Fuc(a1-2)Gal(b1-3)GlcNAc(b1-2)Man(a1-3)[Fuc(a1-2)Gal(b1-3)GlcNAc(b1-2)Man(a1-6)]Man(b1-4)GlcNAc(b1-4)[Fuc(a1-6)]GlcNAc
# How it was run: as §1
# [8] = target: Fuc(a1-2)Gal(b1-3)GlcNAc(b1-3)Gal(b1-4)Glc
# How it was run: as §1
# [9] = target: Fuc(a1-2)Gal(b1-3)GlcNAc(b1-3)GalNAc
# How it was run: as §1
# [10] = target: Fuc(a1-2)Gal(b1-3)GlcNAc(b1-3)[Fuc(a1-2)Gal(b1-3)GlcNAc(b1-6)]GalNAc
# How it was run: as §1
# [11] = target: Fuc(a1-2)Gal(b1-3)GlcNAc(b1-3)[Gal(b1-4)GlcNAc(b1-6)]Gal(b1-4)Glc
# How it was run: as §1
# [12] = target: Fuc(a1-2)Gal(b1-3)GlcNAc(b1-3)[Neu5Ac(a2-6)Gal(b1-4)GlcNAc(b1-6)]Gal(b1-4)Glc
# How it was run: as §1
# [13] = target: Fuc(a1-2)Gal(b1-3)GlcNAc6S
# How it was run: as §1
# [14] = target: Fuc(a1-2)Gal(b1-3)[Fuc(a1-4)]GlcNAc
# How it was run: as §1
# [15] = target: Fuc(a1-2)Gal(b1-3)[Fuc(a1-4)]GlcNAc(b1-2)Man(a1-3)[Fuc(a1-2)Gal(b1-3)[Fuc(a1-4)]GlcNAc(b1-2)Man(a1-3)]Man(b1-4)GlcNAc(b1-4)GlcNAc
# How it was run: as §1
# [16] = target: Fuc(a1-2)Gal(b1-3)[Fuc(a1-4)]GlcNAc(b1-2)Man(a1-3)[Fuc(a1-2)Gal(b1-3)[Fuc(a1-4)]GlcNAc(b1-2)Man(a1-6)]Man(b1-4)GlcNAc(b1-4)[Fuc(a1-6)]GlcNAc(b1-4)[Fuc(a1-6)]GlcNAc
# How it was run: as §1
# [17] = target: Fuc(a1-2)Gal(b1-3)[Fuc(a1-4)]GlcNAc(b1-3)[Fuc(a1-3)[Gal(b1-4)]GlcNAc(b1-6)]Gal(b1-4)Glc
# How it was run: as §1
# [18] = target: Fuc(a1-2)Gal(b1-3)[Fuc(a1-4)]GlcNAc(b1-3)[Gal(b1-4)GlcNAc(b1-6)]Gal(b1-4)Glc
# How it was run: as §1
# Fuc(a1-2)Gal(b1-4)Glc = target: Fuc(a1-2)Gal(b1-4)Glc
# How it was run: as §1
# Fuc(a1-2)Gal(b1-4)Glc6S = target: Fuc(a1-2)Gal(b1-4)Glc6S
# How it was run: as §1
# Fuc(a1-2)Gal(b1-4)GlcNAc = target: Fuc(a1-2)Gal(b1-4)GlcNAc
# How it was run: as §1
# [19] = target: Fuc(a1-2)Gal(b1-4)GlcNAc(b1-2)Man
# How it was run: as §1
# [20] = target: Fuc(a1-2)Gal(b1-4)GlcNAc(b1-2)Man(a1-3)[Fuc(a1-2)Gal(b1-4)GlcNAc(b1-2)Man(a1-6)]Man(b1-4)GlcNAc(b1-4)GlcNAc
# How it was run: as §1
# [21] = target: Fuc(a1-2)Gal(b1-4)GlcNAc(b1-2)Man(a1-3)[Fuc(a1-2)Gal(b1-4)GlcNAc(b1-2)Man(a1-6)]Man(b1-4)GlcNAc(b1-4)[Fuc(a1-6)]GlcNAc
# How it was run: as §1
# [22] = target: Fuc(a1-2)Gal(b1-4)GlcNAc(b1-2)[Fuc(a1-2)Gal(b1-4)GlcNAc(b1-4)]Man(a1-3)[Fuc(a1-2)Gal(b1-4)GlcNAc(b1-2)Man(a1-6)]Man(b1-4)GlcNAc(b1-4)GlcNAc
# How it was run: as §1
# [23] = target: Fuc(a1-2)Gal(b1-4)GlcNAc(b1-3)Gal(b1-4)GlcNAc
# How it was run: as §1
# [24] = target: Fuc(a1-2)Gal(b1-4)GlcNAc(b1-3)Gal(b1-4)GlcNAc(b1-2)Man(a1-3)[Fuc(a1-2)Gal(b1-4)GlcNAc(b1-3)Gal(b1-4)GlcNAc(b1-2)Man(a1-6)]Man(b1-4)GlcNAc(b1-4)GlcNAc
# How it was run: as §1
# [25] = target: Fuc(a1-2)Gal(b1-4)GlcNAc(b1-3)Gal(b1-4)GlcNAc(b1-3)Gal(b1-4)GlcNAc
# How it was run: as §1
# [26] = target: Fuc(a1-2)Gal(b1-4)GlcNAc(b1-3)GalNAc
# How it was run: as §1
# [27] = target: Fuc(a1-2)Gal(b1-4)GlcNAc(b1-3)[Fuc(a1-2)Gal(b1-4)GlcNAc(b1-6)]GalNAc
# How it was run: as §1
# [28] = target: Fuc(a1-2)Gal(b1-4)GlcNAc(b1-3)[Fuc(a1-3)[Gal(b1-4)]GlcNAc(b1-6)]Gal(b1-4)Glc
# How it was run: as §1
# [29] = target: Fuc(a1-2)Gal(b1-4)GlcNAc(b1-6)GalNAc
# How it was run: as §1
# [30] = target: Fuc(a1-2)Gal(b1-4)GlcNAc6S
# How it was run: as §1
# [31] = target: Fuc(a1-2)Gal(b1-4)[Fuc(a1-3)]GlcNAc
# How it was run: as §1
binder,measurement,setting,value
B1,glycan array binding signal (z-score),Fuc(a1-2)Gal,-0.574
same,glycan array binding signal (z-score),Fuc(a1-2)Gal(b1-3)GalNAc,-0.355
same,glycan array binding signal (z-score),[1],-0.051
same,glycan array binding signal (z-score),[2],-0.094
same,glycan array binding signal (z-score),[3],-0.054
same,glycan array binding signal (z-score),[4],-0.132
same,glycan array binding signal (z-score),[5],0.122
same,glycan array binding signal (z-score),Fuc(a1-2)Gal(b1-3)GlcNAc,0.317
same,glycan array binding signal (z-score),[6],0.594
same,glycan array binding signal (z-score),[7],0.441
same,glycan array binding signal (z-score),[8],-0.162
same,glycan array binding signal (z-score),[9],0.109
same,glycan array binding signal (z-score),[10],1.41
same,glycan array binding signal (z-score),[11],-0.172
same,glycan array binding signal (z-score),[12],-0.243
same,glycan array binding signal (z-score),[13],-0.214
same,glycan array binding signal (z-score),[14],-0.705
same,glycan array binding signal (z-score),[15],0.233
same,glycan array binding signal (z-score),[16],-0.542
same,glycan array binding signal (z-score),[17],-0.516
same,glycan array binding signal (z-score),[18],-0.37
same,glycan array binding signal (z-score),Fuc(a1-2)Gal(b1-4)Glc,0.052
same,glycan array binding signal (z-score),Fuc(a1-2)Gal(b1-4)Glc6S,0.232
same,glycan array binding signal (z-score),Fuc(a1-2)Gal(b1-4)GlcNAc,-0.121
same,glycan array binding signal (z-score),[19],-0.489
same,glycan array binding signal (z-score),[20],8.2
same,glycan array binding signal (z-score),[21],-0.037
same,glycan array binding signal (z-score),[22],0.128
same,glycan array binding signal (z-score),[23],-0.638
same,glycan array binding signal (z-score),[24],0.162
same,glycan array binding signal (z-score),[25],0.251
same,glycan array binding signal (z-score),[26],-0.586
same,glycan array binding signal (z-score),[27],-0.077
same,glycan array binding signal (z-score),[28],0.969
same,glycan array binding signal (z-score),[29],-0.614
same,glycan array binding signal (z-score),[30],-0.396
same,glycan array binding signal (z-score),[31],-0.251
